Out of some 48,000 compounds screened, about 1,200 (2.5%) were called active. About 2% were inconclusive and are not listed.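 How the source made its calls: active means activation of at least 60% and not above a set upper limit (about 1 call in 100 departs from these limits); inconclusive means activation of 40% to 60%, or above that upper limit; inactive means activation under 40%.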 The list shows a part of the results.
molecular target: Probable G-protein coupled receptor 32 (Homo sapiens) (UniProt O75388); test: qHTS for Agonists of Human Resolvin D1 Receptor DRV1; settings: CHO-K1 GPR32 beta-arrestin PathHunter luminescence, 90 min; at 76.9 µM; stronger effect = higher value; zero percent set by DMSO-only wells; further: 0% is about no effect
UniProt O75388, sequence (O75388 whole entry, looked up): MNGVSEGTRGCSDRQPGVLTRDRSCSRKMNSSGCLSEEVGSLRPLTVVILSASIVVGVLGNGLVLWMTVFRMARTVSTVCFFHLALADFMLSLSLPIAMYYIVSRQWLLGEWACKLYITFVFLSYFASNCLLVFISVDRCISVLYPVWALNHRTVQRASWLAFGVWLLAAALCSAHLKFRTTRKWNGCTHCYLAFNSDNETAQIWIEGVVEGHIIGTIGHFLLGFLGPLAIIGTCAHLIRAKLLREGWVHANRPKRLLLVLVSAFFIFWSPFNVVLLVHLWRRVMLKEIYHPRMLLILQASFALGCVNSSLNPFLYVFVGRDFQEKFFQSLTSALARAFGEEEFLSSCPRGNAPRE
Method in brief: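 Step 1: seed CHO-K1 GPR32 beta-arrestin cells, 2,500/well, overnight at 37 °C. Step 2: add compounds, 90 min at 37 °C. Step 3: detection reagent, 1 h ambient, then luminescence.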

activation, inactive:
Cc1ccc(C2CC(=O)N(Cc3ccc(F)cc3)c3c2c(C)nn3-c2nc(C)cc(C)n2)cc1 (centres undefined) -17.4%
Cc1ccccc1CNC(=O)CN1C(=O)CCCc2ccccc21 -12%
Cc1ccc(NC2(c3ccccc3)C(=O)c3ccccc3C2=O)cc1F -61.5%
CC1CCN(S(=O)(=O)c2ccc3c(c2)N(CC(=O)NCCCOC(C)C)C(=O)CO3)CC1 -7.44%
Cc1sc(C2C(C#N)=C(N)N(c3ccc(Cl)cc3)C3=C2C(=O)CCC3)cc1CN1CCOCC1 (centres undefined) -32%
O=C(COc1ccccc1)N(Cc1cccnc1)c1nc2c(F)cc(F)cc2s1 -22.6%
Cc1ccsc1CN(C(=O)COc1ccccc1Cl)C1CCS(=O)(=O)C1 (centres undefined) -14.9%
CCc1ccccc1NC(=O)CN(c1ccccc1OC)S(=O)(=O)c1ccc(C)cc1 -4.35%
COCCNC(=O)Cn1c(-c2cccs2)cc2cc(Cl)ccc21 -4.37%
CCC(C)NC(=O)CCCn1c(=O)c2cccn2c2ccccc21 (centres undefined) 23.6%
CCOC(=O)CSc1nc2sc3c(c2c(=O)n1Cc1ccccc1)CC(C(C)C)OC3 (centres undefined) -4.9%
COCCNC(=O)CN1C(=O)COc2ccc(S(=O)(=O)N3CCCCCC3)cc21 8.02%
CCC(C(=O)NC1CCCCC1)n1c(SCc2ccccc2F)nc2ccncc21 (centres undefined) -15.6%
COc1ccc(C2C(=O)N(C3CCCCCC3)CC(=O)N2CCc2ccc(Cl)cc2)cc1OC (centres undefined) -18.5%
CCc1ccc(NC(=O)CSc2ccc(-c3sc(-c4ccccc4)nc3C)nn2)cc1 -5.13%
Cc1ccccc1C(=O)Nc1cccc(NC(=O)c2ccc(C(C)(C)C)cc2)c1 -5.46%
Cc1nn(C(C)C(=O)NCCc2ccccc2)c(=O)c2c1sc1ccccc12 (centres undefined) -24.1%
CCN(Cc1ccccc1)c1nc2c(S(=O)(=O)c3ccccc3)nnn2c2ccc(Cl)cc12 -9.3%
Cc1oc2c(c1C(=O)Nc1ccc(OC(F)(F)F)cc1)C1=NCCN1C=N2 -14.6%
COc1ccc(-c2nc3ccccc3o2)cc1NC(=O)COc1cc(C)cc(C)c1 2.17%
CCc1ccc(NC(=O)CCc2c(C)nn(-c3ccc(N4CCCC4)nn3)c2C)cc1 -16.9%
COc1ccc(NS(=O)(=O)c2cnc(N)nc2)cc1Cl -6.75%
COc1ccc(NC(=O)CCS(=O)(=O)c2cc3c4c(c2)CCN4C(=O)CC3)c(OC)c1 -16.9%
CC(=O)c1ccc(Oc2ncnc3c2oc2ccccc23)cc1 0.992%

Source: PubChem BioAssay AID1346428 (National Center for Advancing Translational Sciences (NCATS), 2018)
